# Article PMC7819943, “Rice protein-binding microarrays: a tool to detect cis-acting elements near promoter regions in rice”
# The other results are listed elsewhere or left out.
# Target: T1, OsWOX13 (Oryza sativa, UniProt Q5QMM3 1-267)
# T1 sequence: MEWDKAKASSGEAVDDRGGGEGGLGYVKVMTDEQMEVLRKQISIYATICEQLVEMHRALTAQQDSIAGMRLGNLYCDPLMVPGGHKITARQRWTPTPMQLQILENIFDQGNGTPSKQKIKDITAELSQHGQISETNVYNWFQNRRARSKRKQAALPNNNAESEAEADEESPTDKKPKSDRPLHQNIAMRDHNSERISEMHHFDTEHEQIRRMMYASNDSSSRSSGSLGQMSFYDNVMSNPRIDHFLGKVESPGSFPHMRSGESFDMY
# Assay: protein-binding microarray (RPBM); PBS, 2% BSA, 51.3 ng/ul salmon testes DNA, 50 uM zinc acetate, 200 nM TF, 25 C, 1 h; high values mean tight binding
# Conditions: protein: recombinant; tags: N-terminal polyhistidine and DsRed monomer fusion (pET32a); label: CyDye5-dUTP incorporated in the synthesized complementary strand; 3' TTTTT single-stranded linker to array surface; dsDNA, one strand shown
# Outline: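 Polyhistidine-tagged DsRed fusions of transcription factors, joined at the N-terminus, were expressed in E. coli BL21-CodonPlus and isolated on Ni–NTA. They were incubated at 200 nM for 1 h at 25 °C on a custom Agilent array, double-stranded and BSA-blocked, in PBS with 2% BSA, salmon testes DNA and 50 µM zinc acetate. The binding signal is per-feature fluorescence intensity (arbitrary units) read on an Axon 4000B scanner after washing.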
row,Sequence,binding signal
1,GTTCATGCAATAACGTTAATTTGGGACTAGATTAGTATCCCGGAGTCACCTAGTGCAG,7620 fluorescence intensity (a.u.)
2,GCTAATATTGATATGGAAGGTTAATTATCCTCTCTCCATTCGGAGTCACCTAGTGCAG,8950 fluorescence intensity (a.u.)
3,AATCACAAATTGAGATCCTAATATTTCCTCACGCCCAATACGGAGTCACCTAGTGCAG,7300 fluorescence intensity (a.u.)
4,ACCCTTACATTACTTCCTTAAACCATTAACATCTGAATTCCGGAGTCACCTAGTGCAG,3370 fluorescence intensity (a.u.)
5,AGTAATTCAGATTAGCAGGAGTAACAATTGGATTAGCAAGCGGAGTCACCTAGTGCAG,4930 fluorescence intensity (a.u.)
6,CCCTAAAATAACCTAATCATGTTGGAACTAGGATCAATGCCGGAGTCACCTAGTGCAG,5290 fluorescence intensity (a.u.)
7,CAGTAGTAAATTACACTAGTAGACACATGTGTATGCAATGCGGAGTCACCTAGTGCAG,5040 fluorescence intensity (a.u.)
8,CCAATTTTATTGGAATTAATTGTTAACCCATCCTTTGATCCGGAGTCACCTAGTGCAG,24300 fluorescence intensity (a.u.)
9,AGCCCCTAAGCCAATCAATTAGCAGGCATCTTTACTCCTACGGAGTCACCTAGTGCAG,18500 fluorescence intensity (a.u.)
10,GCCAATAACAAATCACAGGAAATCCGGCGAGATTTCCGAACGGAGTCACCTAGTGCAG,3820 fluorescence intensity (a.u.)
11,CGACTTTCATCAAAGTTAAATTATTTCAAGTTTGATTAAGCGGAGTCACCTAGTGCAG,3960 fluorescence intensity (a.u.)
12,AGCTTCATCTGATTGGATCTGAAAAGGGACATGTTCTGGACGGAGTCACCTAGTGCAG,29400 fluorescence intensity (a.u.)
13,TGTTAAATGGCCAGTGATGAATTGCTCAATAAGAACAGATCGGAGTCACCTAGTGCAG,16400 fluorescence intensity (a.u.)
14,CAGATTGATCAGACCCTTCAATTAAGCCCACGATGGGCCTCGGAGTCACCTAGTGCAG,46900 fluorescence intensity (a.u.)
15,ACGACACATTGACAGCCACCACTCACCTGCTGATAACCAGCGGAGTCACCTAGTGCAG,5250 fluorescence intensity (a.u.)
16,AAGGAACTTAGCATCAATTATCAATTATTAAGAGAGAAGACGGAGTCACCTAGTGCAG,4280 fluorescence intensity (a.u.)
17,ATGTCGACATACGTAATTAATGTACACTCAGAACATGTCGCGGAGTCACCTAGTGCAG,4870 fluorescence intensity (a.u.)
18,ACTAATTATAAATATTAACCGTAGACTATTAATAAAACCCCGGAGTCACCTAGTGCAG,35000 fluorescence intensity (a.u.)
19,TATTGTAATTAAATCTTTACAATAAGAATCACATGATTATCGGAGTCACCTAGTGCAG,3150 fluorescence intensity (a.u.)
20,GAACTAAATCACAAAGCAAATCAGTAGCTAGACTGCAAAACGGAGTCACCTAGTGCAG,3780 fluorescence intensity (a.u.)
21,ATAATTTCAAATTTTGGTCGTGGCTGATAAGACCAACGAGCGGAGTCACCTAGTGCAG,3560 fluorescence intensity (a.u.)
22,AACTAGATGGCAACTGATTTCTGGGACAAAATCGCTTCTACGGAGTCACCTAGTGCAG,7500 fluorescence intensity (a.u.)
23,TTGTTGACTCAGTTTGATAGGTCGTTTTACTATATTACTGCGGAGTCACCTAGTGCAG,3540 fluorescence intensity (a.u.)
24,GATAGATGACGTATTATTAGACAGTGATGCGCTTGTGGTGCGGAGTCACCTAGTGCAG,5600 fluorescence intensity (a.u.)
25,GTTGGGACTGCCCTAATTTACACCTTGAAAGATGCAATTCCGGAGTCACCTAGTGCAG,7570 fluorescence intensity (a.u.)
26,CACTAATTAACGAAAAGAAACGCAGAGTTCCAATTAAGGACGGAGTCACCTAGTGCAG,18600 fluorescence intensity (a.u.)
27,CAATGATTATTGCAAAAGTACTCCAAGAAGTAAAGTGAACCGGAGTCACCTAGTGCAG,8060 fluorescence intensity (a.u.)

row,Sequence,binding signal
1,ATTATCATAATTTGAAATTCAAATTCAAATTATTGAAACACGGAGTCACCTAGTGCAG,17300 fluorescence intensity (a.u.)
2,AATTTTGATTTGATTCTGCTGCCTCCGGCGCGCCCCTGATCGGAGTCACCTAGTGCAG,16700 fluorescence intensity (a.u.)
3,CAAACAATCACGAGGAGCAGAGCAGGCAGCCGATTCGACACGGAGTCACCTAGTGCAG,4410 fluorescence intensity (a.u.)
4,GTTGATTAATCGCTGGTTAATTTTAATCAAGCGTCTCATTCGGAGTCACCTAGTGCAG,44000 fluorescence intensity (a.u.)
5,ACCAAATTAGTTTCATTAAATTTAATATTAAATATATTTTCGGAGTCACCTAGTGCAG,22400 fluorescence intensity (a.u.)
6,TAATCAAATTGGGAATTTGTTAATGAATAATGTAATTAATCGGAGTCACCTAGTGCAG,19100 fluorescence intensity (a.u.)
7,TGTCGTCAAAATTTGATGGAATTCACACGAATTTAGCAACCGGAGTCACCTAGTGCAG,5150 fluorescence intensity (a.u.)
8,GAGATTGTTGATAGATCTGCAGGTAAGTGGTACTGTCCCACGGAGTCACCTAGTGCAG,10000 fluorescence intensity (a.u.)
9,GATCGAAATTGCATGATTTTGTTTAGTCTAGGAGTAAGGACGGAGTCACCTAGTGCAG,5890 fluorescence intensity (a.u.)
10,CAGATTGAGAGTTCGGGAGGAAAAGGAACAGTACGTGGGCCGGAGTCACCTAGTGCAG,9740 fluorescence intensity (a.u.)
11,GAGAAATGTTAATTTATCTGTTTATTTATTCGCTCTTCAGCGGAGTCACCTAGTGCAG,19100 fluorescence intensity (a.u.)
12,CAAGAACATGATTGTCACTTACCTTGCCTTCCTCAATCTTCGGAGTCACCTAGTGCAG,20700 fluorescence intensity (a.u.)
13,CACATTGATTGGCGGAGATCACCATACGAAATGATGAGATCGGAGTCACCTAGTGCAG,50400 fluorescence intensity (a.u.)
14,CCCTCAAAATTACATTAACACCCCTGCCCAGCAGCTCAGCCGGAGTCACCTAGTGCAG,3260 fluorescence intensity (a.u.)
15,GTTCTGCTAATCTGTAATGTTTCTTTTGTTTGTCATATCTCGGAGTCACCTAGTGCAG,4070 fluorescence intensity (a.u.)
16,TGGTTTCAATAATCAGGGGTCGTGATATATGGTATTATGGCGGAGTCACCTAGTGCAG,3210 fluorescence intensity (a.u.)
17,CCAAAACGCCCAAATTATGTTCCAATTGAGGTTGCTGGCACGGAGTCACCTAGTGCAG,5610 fluorescence intensity (a.u.)
18,AGTATATACTTTTGTTGATTGCATTCTTTCCTTTTCTTTTCGGAGTCACCTAGTGCAG,4550 fluorescence intensity (a.u.)
19,CTTTAAATTTTAACTTTTGCATTGGCTTATTAGACCAACTCGGAGTCACCTAGTGCAG,4620 fluorescence intensity (a.u.)
20,CTGAAACTGATTGAACTTTTGTCCATTTTCAGATCGTGTACGGAGTCACCTAGTGCAG,49400 fluorescence intensity (a.u.)
21,GTTTCGTCTCGTAATTTACACGCAATCTGTGTAATTAGTTCGGAGTCACCTAGTGCAG,7230 fluorescence intensity (a.u.)
22,AAGTAATTATTTATTCTTTTCATATCATTTGATTCATTGTCGGAGTCACCTAGTGCAG,20800 fluorescence intensity (a.u.)
23,GTCAAATCATGATGTAATTACACTCAGAAGATTCGTCTCGCGGAGTCACCTAGTGCAG,29200 fluorescence intensity (a.u.)
24,GGCATAAATTTAGAGACTGTACGTTTTGTACTTGGTGTGACGGAGTCACCTAGTGCAG,4530 fluorescence intensity (a.u.)
25,TGTCAATCAACAGTCGGCACATATGTGGTAAGTCTCGCACCGGAGTCACCTAGTGCAG,24700 fluorescence intensity (a.u.)
26,TGTTGACAACTAATCAATTGCAATAAGTAACGTGTTAGGTCGGAGTCACCTAGTGCAG,32900 fluorescence intensity (a.u.)
27,TAAAACAATCAATTTCTCAACAACAGTCCAGTTAGTATCACGGAGTCACCTAGTGCAG,7030 fluorescence intensity (a.u.)
